± gives the standard deviation of the averaged measurements. The list shows a part of the results.
System: PfAP2-G AP2 domain (GST-tagged)
Assay: gcPBM binding intensity (ln(normalized median fluorescence intensity)); higher = stronger DNA binding
In short: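 In this array assay, P. falciparum DNA-binding domains with a GST tag, expressed in E. coli, were applied for 1 h to primer-extended double-stranded 36-bp intergenic genomic probes and negative controls on an Agilent 4 × 180k array. Bound protein was visualised with Alexa488 anti-GST antibody at 488 nm. Binding intensity is the highest Masliner-normalised natural-log median intensity across replicate spots of either probe orientation.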

Sequence	gcPBM binding intensity (ln)
TATATATATAATGTTTGTACATATTAAATATATATG [XGTACX_site407]	11 ± 0.57
AGGTATTTTCTTGTGACACACATATATATATATATT [CACACA_site2220]	10.23 ± 0.071
TAATTAAAATTATCTACACACCTTTATAAATATATA [CACACA_site3928]	9.68 ± 0.028
AAAAAAAGTTGATACTGTACTCGTGCATTATGAATA [XGTACX_site5558]	11.4 ± 1
CTTATTAAAATTATTTGTACACAATATGTAAAAGTA [XGTACX_site7237]	11.4 ± 0.6
ATTAATTATTTCAATGCATGTGAACACTATATATAA [TGCATGCA_site600]	10.2 ± 0.2
TTTTGCAATAATGTTGCACACTAAATAGTCATATAT [CACACA_site7977]	10.2 ± 0.26
TTTATATTGATATATACACACATATACATCCTATTT [CACACA_site7442]	9.835 ± 0.064
ATTATTGTTGTTCATGTACACACTATAATAAAAGCA [CACACA_site4168]	11.4 ± 0.91
TAATTTTTTAGACACACACACATATAAATATAAATA [CACACA_site6195]	10.3 ± 0.31
AATTGGAAACAACCAAAAAAATTAAAGTTGTATCCT [CACACA_negctrl_site565]	10.04 ± 0.099
AAAAATAAAATAATATGTACATATATAATATATATA [XGTACX_site4786]	11.1 ± 0.75
TATTCGAAAATTATTCAAATTATCTAACATATTATT [TGCATGCA_negctrl_site70]	9.565 ± 0.021
TTCCTTTGTCCTAACTGTACTCAAATTTATTAGTGG [XGTACX_site226]	11.8 ± 0.75
ATAATATATTTTTGAACACACAATATAGATTTATAT [CACACA_site7857]	9.895 ± 0.007
TTGTATATTATATGTACACACAATAAGTTAATATAA [CACACA_site909]	11.5 ± 0.93
TAAATTTTAATATGCACACAAAATGTTATATTAAAA [CACACA_site4366]	9.98 ± 0.28
CGGCACATTATATATACACACATATAAATATATACA [CACACA_site8086]	10 ± 0.29
TAAATACAAAAATGTACACACATATATATATTTTTA [CACACA_site3503]	11.2 ± 0.89
TATATCTTAATATACACACACACATATATATATATA [CACACA_site4968]	10 ± 0.11
TAAATGAAAACCATTAGTACTTATACTGATAAATGT [XGTACX_site763]	10.8 ± 0.47
TATATAAATATATATACACACAAAAAAAAAAAAAAA [CACACA_site1406]	9.76 ± 0.33

Sequence	gcPBM binding intensity (ln)
ACACGTTTATATAAAAAATTAAAATTTTTCTTATTT [CACACA_negctrl_site1523]	9.895 ± 0.007
AGAAGCATACATCAAGCACACACACCCACACCCACA [CACACA_site8014]	10.3 ± 0.44
TCCTTTTCTTAATTTAAAAAATATAAAAAAAACGAA [CACACA_negctrl_site1821]	9.84 ± 0.35
ATTTTTGTGTTTACACGTACGTGTAAATTATTTTTC [XGTACX_site1869]	11.3 ± 0.57
TATTCATGTTTAAAAAGTACATATTATGGTAACATT [XGTACX_site4533]	11.3 ± 0.9
ATAACAAAATAAAACACACACACAAATGTACAGATA [CACACA_site5358]	11.1 ± 0.72
TCATAAATTAAACAAACACACACGTTCTTTTATTTA [CACACA_site713]	9.84 ± 0.11
ATTTATTCAAATGGTTGTACTACAAATAAACATTAT [XGTACX_site3378]	11.6 ± 1
AACAATGTTGTACATACACACACACTAATAAAAAAT [CACACA_site8758]	11.4 ± 0.95
AAAAGGGATAAATGTGCGCACATGTTATATATATAT [GTGCAC_site9534]	10.8 ± 0.43
ACATATCTACACAGTGGTACTTCCATTAATATATAC [XGTACX_site3827]	11.1 ± 0.56
GCTCATTGAAGTTATACACACCAAATATGTAAATAT [CACACA_site7217]	10.07 ± 0.064
AATACATACAGACACACACACACATATAAATAAATA [CACACA_site7642]	10.2 ± 0.28
GTAAAAAAAGAGCACACACACAAAAACACCCACAAA [CACACA_site1292]	10.7 ± 0.47
TTTATTCCCGCATATAGTACATATACCATTTAATGT [XGTACX_site7011]	11 ± 0.55
AATATTTAAGTACTGGTGCGTGTATATAATGATTAA [GTGCAC_site9633]	11 ± 0.5
AAACTTGTAAGAAACACACACACACGCATATAAATA [CACACA_site6518]	10.2 ± 0.18
ATAAATAAAATATGCACACAAATATAGGAAACAACA [CACACA_site2561]	10.35 ± 0.099
CATAAATACACTGTAGCGCACACGGCCAAAAAAAAA [CACACA_site8537]	10.8 ± 0.52
ATATAATATGGTATTACACACTGTTATAAGTATGGC [CACACA_site2094]	9.96 ± 0.085
TTAAATAAAATTTATTGTACATAAAATTAAATATAG [XGTACX_site3039]	11.1 ± 0.65
CATAATTTACATAAAAGTACATATATATTAATGACG [XGTACX_site6247]	11.3 ± 0.71

Sequence	gcPBM binding intensity (ln)
GTCACAAAATAAATTAAACACACAACATCATATATG [CACACA_site8182]	10.1 ± 0.035
AATATAAATTTATATTGTACATATTTTATTATATGT [XGTACX_site905]	11.2 ± 0.78
TAAATATTATTTATATGTACTGATATATTAAATAAA [XGTACX_site3446]	10.9 ± 0.8
AATTAATATTTAAATTGTACATGAACATTTTAATGT [XGTACX_site462]	10.9 ± 0.55
AAAATAAAATTTACTTGTACTAAAGGGATACGCGCA [XGTACX_site1453]	11.1 ± 0.67
GTGTATCAATATGTAGGTACGTAAATATAGATAATA [XGTACX_site5526]	11 ± 0.52
ATAATGTGTTAGGCGTGTACACAATTGTATGGTTTA [XGTACX_site2377]	11.5 ± 0.88
TAATATAATATATAGGTGCAATATTAACAAAAATTT	10.1 ± 0.28
ATTAATATGAATAAATGTACAAATGAATGATTACAT [XGTACX_site6044]	10.7 ± 0.32
ATATATATATATGAAAGTACACATCTATTTTTTCTT [XGTACX_site6059]	11.3 ± 0.88
AAGGTAGATATATTTAGTACGTAATTTTTTTTTTTT [XGTACX_site7288]	11.1 ± 0.67
AAATAAAATCATAATGTGCGCATATAAATTTGTAGG [GTGCAC_site9662]	10.21 ± 0.078
TAAGTAAAAAATTAAAAAGATTACAGGGGGGGAAGG [XGTACX_negctrl_site491]	11.5 ± 0.8
ATTTTAACGAATATATGTACATAAAAAAAAAAAAGA [XGTACX_site8750]	11.4 ± 0.79
TTTCTTTAATATATAGTGCATGTAAATTTTACAATA [GTGCAC_site9679]	10 ± 0.2
GACATAAGATAATTACACATTGTTTCCTCAATAATA [CACACA_negctrl_site1616]	10 ± 0.13
AAAAAAAAAAACAGTTGTACATTTATTTATATATTA [XGTACX_site217]	11.1 ± 0.61
AAAATAAGGACTGTTGTGCACTGGATTTGTGGTTAC [GTGCAC_site9830]	10.6 ± 0.22
TAGAAAAAATAAAATAGTACACATCCAAAAAAAAAA [XGTACX_site7829]	11.3 ± 0.67
TATATACAAATATGTACACACATTACAGATGTACAT [CACACA_site6586]	11.8 ± 0.82
ATAATTAGGGTGTATTTCATTTCATTTCATTTTATT [CACACA_negctrl_site1418]	10.4 ± 0.2
AATATATAAATATATACACACAAAAACATATATATA [CACACA_site1318]	9.91 ± 0.085

Sequence	gcPBM binding intensity (ln)
CCAAACAAAAAAAAAAGTACATAAAACACCTATTTG [XGTACX_site5645]	11.5 ± 0.91
CAAACAAATTGTGAAACACACATATATATATATATA [CACACA_site2001]	10.2 ± 0.65
TTTTGTTTTTTCAATGTGCACTTAGGATGTTTTTAT [GTGCAC_site9565]	10.4 ± 0.4
TAAATAAAAATACAGTGTACTTTTTTCTATTTAAAA [XGTACX_site3288]	11.7 ± 1.2
ATCCAAATTAATAATAGTACTTTTAAGTCCTATGTA [XGTACX_site2452]	11 ± 0.59
AACGTATTATTTATCTGTACAAAATAATAACGTATT [XGTACX_site813]	10.7 ± 0.42
ATCATGGAAAAAACAAATGGGCTACATTACCTTTTG [GTGCAC_negctrl_site487]	10.2 ± 0.16
TTGGAGTTCATATGTGGTACACATTTAAATATATTT [XGTACX_site5582]	11.6 ± 0.97
GATATAAACGTATATGTACATATATATATATATATA [GTGCAC_negctrl_site186]	11.3 ± 0.57
ATATATACATAGAATTGTACATAATTTATGTTCATT [XGTACX_site7426]	10.8 ± 0.3
ATAATAAATGTCTTCAATGAAGTGGAAATGCTGTTA [TGCATGCA_negctrl_site238]	10 ± 0.2
AAAAGGATTTTTTATACACACACTAACTAATGTATA [CACACA_site2356]	9.985 ± 0.078
TCTTGTTATAATAATCAATATATGGGTATACTTATG [CACACA_negctrl_site1618]	10.04 ± 0.099
AAAAAAATAAATAAGACACACACAAAAAAAAAAAAA [CACACA_site8404]	9.81 ± 0.38
TTTTTTTTTTTTTTCTGTACTGATACTTATAGAGTT [XGTACX_site4736]	11 ± 0.92
TAAATAATAATAAAATGTACATTATATATGTATATG [XGTACX_site8672]	10.8 ± 0.42
TATTACTTTATATATACACACATATAACATAAATGC [CACACA_site3948]	10.2 ± 0.23
CAGGTTCTTATATAGTGTACTATAGACATTCAATTG [XGTACX_site7239]	11 ± 0.57
AAATAATAAATATATCGTACAAATATCATATATAAA [XGTACX_site2771]	10.7 ± 0.38
TTTTTTCTTTTTATAACACACAGGTGAAAAATAATA [CACACA_site1850]	10.1 ± 0.32
TCCTGTTGAGAATGGCGTACATATAAATATTATATA [XGTACX_site1841]	11.5 ± 0.95
TTTCCTCATTTTATCATACACACTTGTTTATATGTG [CACACA_site8202]	10.15 ± 0.021
